± gives the standard deviation of the averaged measurements. The list shows a part of the results.
The sequences below were run on PfAP2-I AP2 domain 3 (GST-tagged) (assay: gcPBM binding intensity (ln(normalized median fluorescence intensity)); higher = stronger DNA binding).
Method in brief: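 An Agilent 4 × 180k array of primer-extended double-stranded 36-bp intergenic genomic probes, with negative controls, was incubated for 1 h with GST-tagged P. falciparum DNA-binding domains expressed in E. coli. Alexa488 anti-GST antibody detected bound protein, scanned at 488 nm. Binding intensity is the highest Masliner-normalised natural-log median intensity across replicate spots of either probe orientation.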

Sequence	gcPBM binding intensity (ln)
CATACATACATACATACACACATACATATATATATA [CACACA_site8388]	9.43 ± 0.25
TCTAAAATAGTCCAGAGTACAAGAAACCATAATATA [XGTACX_site5237]	7.62 ± 0.57
ACATTTATTTTGAATGGTACACTATTATTATGAAAT [XGTACX_site4384]	7.78 ± 0.35
GACCTACAAAAAGGCACACATATACTCATACATACA [CACACA_site5232]	8.32 ± 0.36
GTGTAATGCTTATCGGTGCATATATATATATATATA	10.5 ± 0.33
AAAAAAAAAAAAGGTACTACACACTATTATCAATAG [XGTACX_site161]	7.77 ± 0.38
GATAATTTTTGCATATGTACTTAAAAATTAAAAATT [XGTACX_site7037]	8.04 ± 0.18
TTTTTTAAACGTTTAAATAATTAAATATAAATAAAT [CACACA_negctrl_site1567]	7.41 ± 0.58
TGAACAACTATTACTGCACACATTCTTACACTATAT [CACACA_site4533]	10.1 ± 0.33
AAAAAAGAAACAATCGCATGCAATGTTAATGTACAT [TGCATGCA_site395]	7.84 ± 0.74
AGGTGTCATATATGCACACAAAAGTAACACGCACCT [CACACA_site472]	9.92 ± 0.14
TACGCAAAATAAAATCAAAATATAAGGAAAAAAAAA [TGCATGCA_negctrl_site578]	7.58 ± 0.73
TCTAATAAAATAAATACATGCATACATACATACATA [TGCATGCA_site895]	7.76 ± 0.63
AGGATTATATATTAATGTACCCGCGTTAATTTTTTT [XGTACX_site2878]	7.82 ± 0.49
AAATAGAGAAATACAAGTACATACTAAACCTATCTA [XGTACX_site1334]	7.49 ± 0.69
TAATATTTATCAAGTCGTACATAAAATGTATAATAA [XGTACX_site1103]	7.91 ± 0.26
ACAAAGAAATATAATACACACAAGAATATATTGGAT [CACACA_site3901]	7.9 ± 0.68
GTACAATAAGATGTAGCATGCCGTACCTTCACTACG [TGCATGCA_site235]	7.72 ± 0.79
ATACTGTATGAAAGCACACATACTTATTACTAACAT [CACACA_site4164]	8.59 ± 0.18
CAAATAACAAAATAATGTACATTTATACTTTTTTTT [XGTACX_site943]	7.49 ± 0.42
TATACATATTTGTATTGTACATAAACTAAATCTTCA [XGTACX_site610]	7.42 ± 0.49
TATCTCTACAAAATTTTATTCATTATTCATGTTATA [XGTACX_negctrl_site452]	8.09 ± 0.26

Sequence	gcPBM binding intensity (ln)
TTTGTTGTTGTGAAACGTACTCATAGGATGTTGTAT [XGTACX_site5716]	8.06 ± 0.42
ATATTTTCAATGTTCACACATACACAAAAAAAAAAA [CACACA_site6077]	8.16 ± 0.6
CTTTTGCCCAAAAAGGTACACACCACAATGTACATA [CACACA_site809]	8.04 ± 0.47
GTTAATATACATAAACGTACAGAATTATTATGAGTT [XGTACX_site5185]	7.61 ± 0.49
GCTTGGATATATTAATGTACTTATATATTATGTTGT [XGTACX_site3768]	7.92 ± 0.47
TAAATAATCGCATAATGTACATATAATTTTTTTTTT [XGTACX_site4880]	7.46 ± 0.27
AAAATTTTTTTTATTTGTACACAATTCGATACATAA [XGTACX_site4804]	8.04 ± 0.52
CCAATTCAAATATGCACACAAATTTGAAAACGATTA [CACACA_site3607]	8.9 ± 0.092
ATATAGTAAAGTTATACACACATGAATTTTCCCATA [CACACA_site7457]	7.68 ± 0.72
ATATTTTAATTATAAAGTACATAAAAATATATAAAC [XGTACX_site6705]	7.92 ± 0.35
TTTTTTATTGTGATACGTATATTATTTTATGATAAA [CACACA_negctrl_site1591]	8.04 ± 0.6
TAAAAATGTAAACACACACACATAAATATATTTTAT [CACACA_site5397]	7.84 ± 0.56
AAAGATGGAGTGATATGTACTGATATATTATTATAT [XGTACX_site6500]	7.62 ± 0.67
AAGCATAAAGTATATAGTACATATATATATATATAT [XGTACX_site2945]	9.45 ± 0.63
ATCTTTCGTACATGTACACACAGAAAAAAAAAAAAA [CACACA_site2502]	8.51 ± 0.092
GTGTAATCATATAAGGGTACAAAAAATGTCTAACAA [XGTACX_site8122]	8.07 ± 0.72
GTTCCCATAAATAAATGTACATATTATATATATATA [XGTACX_site3242]	9.15 ± 0.24
ATTTTTTTTTTTTTTGAACACACATTATTAATTTTT [CACACA_site7990]	7.88 ± 0.5
ATATATTTTATATAGTGTACTTTAATTTTTTTTTTT [XGTACX_site5550]	7.62 ± 0.42
ATATATATATATGTTAGTACTTATATTGAAATGGTA [XGTACX_site1406]	9.19 ± 0.57
ATAAATAAAACAAAATGTACAAATATTCATATATTC [XGTACX_site1307]	7.5 ± 0.62
TTTCATTTCACAGACACACACACACCCTATATTTCC [CACACA_site3906]	8.25 ± 0.18

Sequence	gcPBM binding intensity (ln)
TTATTTACCTATTATAGTACATATAATTAATATAAT [XGTACX_site5724]	7.92 ± 0.16
TTTAAAAAAAATATGTGTACTTAATATTTTCATATA [XGTACX_site7421]	7.725 ± 0.021
TACATATAAATAATAACACACACCTAGGTACATGGA [CACACA_site838]	7.72 ± 0.43
AGAAAGGAGGAAATAAAAGGACTTCTTTTTTTATAT [CACACA_negctrl_site810]	7.52 ± 0.61
CATACACAGAAACACACACACATATATATATATATA [CACACA_site4519]	9.52 ± 0.37
ATTCATATCTACTTCACACACATTTGATCATTCAAA [CACACA_site7207]	8.14 ± 0.59
AAAATCTATATTAACACACACACAAAAAAAAAAAAA [CACACA_site6738]	8.21 ± 0.49
ATAGTATTTTTTATTACACACAAATAAAAAGAAAAA [CACACA_site2087]	8.11 ± 0.057
ATGAAACAGTAACATTGTACTTTTACAAAAAAATAA [XGTACX_site806]	7.7 ± 0.33
AAAAATAAAATGATGGTGCACATAAAGTATGGTTAC	10.6 ± 0.14
ATTGAAAATTATTTACCTTCTTTGAAAGAACAAATG [CACACA_negctrl_site1736]	7.5 ± 0.49
ATAAATAAATTTATACGTACACATAATATATATATA [XGTACX_site4634]	9.12 ± 0.13
TAATTAATATATTTTTGTACTTATATATTTGCGTAT [XGTACX_site340]	7.46 ± 0.31
AATCCACAAAGACACACACACACATATATATATATA [CACACA_site1269]	9.6 ± 0.31
TTATAATATATATGTGGTACTTATTTATTTATTTAT [XGTACX_site7572]	7.5 ± 0.38
TTTTGTAATTTTGTATGTACACATTAAAGTAATATG [XGTACX_site2401]	7.92 ± 0.39
ATTTTTGATTTTAAAAGTACATAAGTATACTATTTA [XGTACX_site7162]	7.61 ± 0.47
AAAATTCTTCGGGGGAGTACAAGGATATTCTACGTT [XGTACX_site3974]	10.1 ± 0.52
TAAAAAAAAAAAAAAAGTACCCATACTATATTACAT [XGTACX_site946]	7.54 ± 0.42
GTAAAAATTTCATATTCACACACAAAAAAAAAAAAT [CACACA_site8457]	7.84 ± 0.43
TTACTAAACTTATATGTACACACATATAACATTAAT [CACACA_site8710]	8.18 ± 0.34
AGTAGTCTGGAGAAGAGTACATAGTATCTGATAACC [XGTACX_site2044]	7.88 ± 0.67

Sequence	gcPBM binding intensity (ln)
AAGAATTTTACAAAATGTACTTATGTTTTGTTTTAC [XGTACX_site5632]	7.49 ± 0.6
TGGGAATAACGACACACACACACACGGATATAAATA [CACACA_site7633]	8 ± 0.43
TGATTATCCTATATATATTTCATAATGGAAAAAAAT [TGCATGCA_negctrl_site444]	7.64 ± 0.45
AATGTGGTATTTACAAAAAGGCTTTATACTTAAAAA [XGTACX_negctrl_site566]	7.83 ± 0.5
AAAAATAGTCTTCTTGCACTTTTTAATTTATTTTAA [CACACA_negctrl_site1322]	9.135 ± 0.035
TATATTTTGTTTTTGTGTACATATTGGTAGTTATTT [XGTACX_site7659]	7.97 ± 0.36
CTTTTCATCTTCTTAACACACAAAAAAAAAAAAAAA [CACACA_site3886]	8.17 ± 0.54
AAGAAAATATAACAAAGTAAAAACATATTATATATA [TGCATGCA_negctrl_site248]	7.34 ± 0.34
TATATATATTTTTGAAGTACTTATTACACTAGCATT [XGTACX_site8965]	8.12 ± 0.54
AAAAACGATTAATGTGTACACACATAGTTATAAACA [CACACA_site8659]	7.89 ± 0.54
TTTTTTTTTTTTTAATGTACAAATATGGTGACAAAA [XGTACX_site8709]	8.19 ± 0.46
ATATATATATATATATGTACATATATTTTCTTTTTG [XGTACX_site6017]	9.44 ± 0.61
TTGTTCTATAATTATACATGCATTAACAGAGTAAAA [TGCATGCA_site909]	8.59 ± 0.56
AGGATAACATACAAAAGTACATAAAACTAAAAAAAC [XGTACX_site26]	8 ± 0.57
TTTATTAAACTTGACACACACACACCCACATATATA [CACACA_site760]	8.305 ± 0.078
ATATTATATAGAAACACACATACACATGTAAATATA [CACACA_site2037]	7.75 ± 0.67
ATCTTATATTATCACACACACACGCACAAAACAGAA [CACACA_site1463]	8.64 ± 0.4
ATATAGAAAATGCATACACACTTTATATATATATTT [CACACA_site4658]	7.68 ± 0.6
TAATTATTTCGTATATTTGAATGGTACATGCTTATA [CACACA_negctrl_site1178]	7.61 ± 0.26
ATGGATTTTACCATAGCACACATATATGAATATTTT [CACACA_site8535]	7.96 ± 0.54
AATGTGCTCGCTATTACACACTCATTGGGATAAAAT [CACACA_site8627]	7.99 ± 0.59
AGTAACAATTATTATGCATGTACAAATAATCATTTT [TGCATGCA_site867]	7.86 ± 0.57

Source: the supplement of paper PMC11417369
